Reference: patent US20240376128A1, “N-CYCLOPROPYLPYRIDO [4, 3-D] PYRIMIDIN-4-AMINE DERIVATIVES AND USES THEREOF” (Jacobio Pharmaceuticals Co., Ltd., priority 2021, published 2024)

How the values were obtained:
[1] = molecular target: T1, K-Ras G13D (Homo sapiens, UniProt P01116, G13D); test: Nucleotide exchange assay (GDP form K-Ras, no SOS1 added), TR-FRET; conditions: read-out: Biochemical assays, IC50, K-Ras G13D GDP
Experimental: (§1) The parameters were F486: Excitation 340 nm, Emission 486 nm, Lag time 100 pas, Integration time 200 pas; F515: Excitation 340 nm, Emission 515 nm, Lag time 100 pas, Integration time 200 pas. TR-FRET ratios for each individual wells were calculated by equation: TR-FRET ratio=(Signal F515/Signal F486)*10000.

[2] = molecular target: T2, K-Ras G12V (Homo sapiens, UniProt P01116, G12V); test: SOS1 catalyzed nucleotide exchange assay (GDP form K-Ras), TR-FRET; conditions: read-out: Biochemical assays, IC50, K-Ras G12V GDP
Experimental: as §1

[3] = molecular target: T2, K-Ras G12V; test: GTP-K-Ras (GppNp-K-Ras) and cRAF interaction assay, HTRF; conditions: read-out: Biochemical assays, IC50, K-Ras G12V GppNp
Source text: (§2) GppNp is an analog of GTP.

[4] = molecular target: T1, K-Ras G13D; test: as above; conditions: read-out: Biochemical assays, IC50, K-Ras G13D GppNp
Source text: as §2

SMILES: C#Cc1c(F)ccc2cc(O)cc(-c3ncc4c(N(C)C5(C)CC5)nc(OC[C@@]56CCCN5C[C@H](F)C6)nc4c3F)c12 [Compound 19]
- IC50 [1]: > 100 nM
- IC50 [2]: 9.6 nM
- IC50 [3]: 3650 nM
- IC50 [4]: > 100 nM
